Data from PubChem BioAssay AID504832 (National Center for Advancing Translational Sciences (NCATS), 2011).
The whole screen tested about 310,000 compounds, of which about 18,000 (5.8%) were called active. Inconclusive results, whose numbers are uncertain, are shown with a selection of clear calls. The call rests on the fitted dose curve; in most records, active means well fitted inhibition curve with a large enough effect; inconclusive means small, poorly fitted or top-dose-only effect, or another doubt; inactive means no such curve, though single readings can be large or run the other way. No potency is given beside an inconclusive call; the fits are too rough.

experiment: Primary qHTS for delayed death inhibitors of the malarial parasite plastid, 48 hour incubation; details: P. falciparum luciferase growth in erythrocytes; series mostly up to 28.7 µM
Summary of the method: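 Cell-based growth assay: transgenic P. falciparum expressing firefly luciferase, cultured in red cells within RPMI 1640 containing 0.5% w/v Albumax, 24 mM bicarbonate and gentamycin. A drop in luciferase activity indicates inhibition.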
Potency means the concentration at half of the fitted maximal effect; tags describe the fitted curve by direction and shape.

Row | Compound | Potency
1 | CN(CC(=O)Nc1c(Cl)cccc1Cl)C(=O)Cc1ccc2c(c1)CCC2 | inactive
2 | COc1cc2cc(CN(Cc3cccs3)C(=S)Nc3cccc(C)c3)c(=O)[nH]c2cc1OC | inconclusive [inhibitor, single point]
3 | COc1ccccc1C(CNC(=O)C(CCSC)NS(=O)(=O)c1ccccc1F)N1CCCC1 (centres undefined) | inconclusive [inhibitor, single point]
4 | Cc1cccc(C)c1NC(=O)/C(C#N)=C/c1ccsc1 | inactive
5 | N#Cc1c(NC(=O)CSc2nnnn2C2CCCCC2)sc2c1CCCC2 | inactive
6 | CC(=O)Nc1ccc(S(=O)(=O)N2CCN(S(=O)(=O)N3CCC(C)CC3)CC2)cc1 | inactive
7 | COc1cc(C(=O)OCCCc2cc3ccccc3c(=O)o2)cc(OC)c1OC | inactive
8 | CCCCSc1nc2c(cc1C#N)CCC2 | inconclusive [inhibitor, partial curve]
9 | Cc1ccn2c(=O)nc(SCC(=O)Nc3cccc4ccccc34)nc2c1 | inconclusive [inhibitor, partial curve]
10 | O=C(CCCN1C(=O)c2cccc3cccc(c23)C1=O)N1CCN(Cc2ccc3c(c2)OCO3)CC1 | inconclusive [inhibitor, partial curve, poor fit]
11 | Cc1c(C)n2c(SCC(=O)NCc3ccc4c(c3)OCO4)nnc2[nH]c1=O | inconclusive [inhibitor, partial curve, poor fit]
12 | Cc1ccc(CNC(=O)C(C)C2Sc3ccccc3NC2=O)cc1 (centres undefined) | inconclusive [inhibitor, partial curve]
13 | Cc1ccc(CSC2=Nc3ccccc3C3=NC(=O)CN23)cc1 | inconclusive [inhibitor, single point]
14 | COc1cc(/C=N/NC(=S)NC(C)C)ccc1OCC(=O)Nc1c(C)cc(C)cc1C | active: 11.7 µM
15 | CCOc1ccc(NC(=O)c2ccc(NC(=O)c3cn4c5c(c(N6CCN(C)CC6)c(F)cc5c3=O)OCC4C)cc2)cc1 (centres undefined) | active: 2.33 µM
16 | COc1ccccc1N=c1oc2cc(O)ccc2cc1C(N)=O | inactive
17 | Cc1cc(-c2ccccc2)nc2cc(C(N)=O)nn12 | inactive
18 | Cc1ccccc1C(=O)O/N=C(\N)Cc1cccs1 | inconclusive [inhibitor, single point]
19 | CCC(Sc1nc2ccsc2c(=O)n1-c1ccc(Cl)c(C)c1)C(=O)NCc1ccco1 (centres undefined) | active: 13.1 µM
20 | Cc1nn(CCCC(=O)Nc2c(F)cc(F)cc2Br)c(C)c1[N+](=O)[O-] | inactive
21 | COCCn1c(SCC(=O)Nc2ccc(F)cc2)nc2ccccc2c1=O | inactive
22 | COc1cc(OC)c2ccc(=O)oc2c1C(CC(=O)N1CCCC(C)C1)c1ccc2c(c1)OCO2 (centres undefined) | inconclusive [inhibitor, single point]
23 | O=C1[C@@H]2Cc3c([nH]c4ccccc34)[C@@H](c3ccccc3)N2C(=O)[C@@H]2Cc3c([nH]c4ccccc34)[C@@H](c3ccccc3)N12 | inconclusive [inhibitor, full curve]

Row | Compound | Potency
24 | Oc1ccc(Br)cc1/C=N/N1CCN(Cc2cccc3ccccc23)CC1 | inconclusive [inhibitor, partial curve, poor fit]
25 | CCCCC1=NC2(CCCC2)C(=O)N1Cc1ccc(-c2ccccc2-c2nn[nH]n2)cc1 | inconclusive [inhibitor, single point]
26 | Cc1nc2cc(NC(=O)CS(=O)(=O)c3ccc(F)cc3)ccc2s1 | inactive
27 | CCCn1c(SCC(=O)Nc2cccc(C(=O)OCC)c2)nnc1-c1ccoc1C | inconclusive [inhibitor, single point]
28 | CCN(CC)C(=O)c1ccc2c3c(cccc13)C(=O)N(CCc1ccc(OC)c(OC)c1)C2=O | inconclusive [inhibitor, partial curve]
29 | CCN(CC)C(=O)CSc1nc2c(sc(=S)n2Cc2ccco2)c(=O)n1-c1ccccc1 | inconclusive [inhibitor, single point]
30 | O=C(CNC(=O)C12CC3CC(CC(C3)C1)C2)Nc1ncccc1O | inactive
31 | Cc1cc(C)c(OCC(=O)NCC(c2ccco2)N2CCCCC2)c(C)c1 (centres undefined) | active: 13.1 µM
32 | CCC(Sc1nc(C)cc(C)n1)C(=O)Nc1ccc(Cl)cn1 (centres undefined) | inconclusive [inhibitor, single point]
33 | COc1ccc(C(=O)Nc2ccc(N3CCN(C)CC3)cc2)cc1 | inactive
34 | C=CCCC(=O)N1CCCC(C(=O)c2cccc(OC)c2)C1 (centres undefined) | inactive
35 | COc1ccc(C(=O)Nc2ccc(NC(C)=O)cc2)cc1S(=O)(=O)N1CCCC1 | inconclusive [inhibitor, single point]
36 | COc1ccc(NC(=O)C2CCC(N3C(=O)C4C5C=CC(C5)C4C3=O)CC2)cc1 (centres undefined) | inconclusive [inhibitor, single point]
37 | CCOC(=O)c1c(C)[nH]c(C)c1C(=O)COC(=O)/C=C/c1cccc(Cl)c1 | inconclusive [inhibitor, single point]
38 | CCOC(=O)N1CCN(C(=O)c2ccc(NC(=O)c3ccc(C)cc3)cc2)CC1 | inconclusive [inhibitor, partial curve, poor fit]
39 | Cc1cc(C)cc(NC(=O)CSc2nnc(-c3cc(C)[nH]n3)n2N)c1 | inconclusive [inhibitor, partial curve, poor fit]
40 | CCCCC(O)(c1ccc(CC)cc1)C(CN1CCOCC1)c1ccccc1 (centres undefined) | active: 1.85 µM
41 | O=C(COC(=O)c1ccccc1)Nc1cc(S(=O)(=O)N2CCCCCC2)ccc1Cl | inconclusive [inhibitor, single point]
42 | Cc1cc(C(=O)N/N=C/C(Cl)=C/c2ccccc2)c(C)o1 | active: 9.28 µM
43 | O=C(COc1ccc(Cl)cc1)N(c1ccccc1Cl)C1CN2CCC1CC2 (centres undefined) | inconclusive [inhibitor, single point]
44 | O=C(CS(=O)c1cccc(C(F)(F)F)c1)Nc1ccccc1Cl (centres undefined) | inactive
45 | CCn1ccnc1CNC(=O)c1cc(COc2ccc(F)cc2F)on1 | inconclusive [inhibitor, single point]
46 | COc1ccccc1NC(=O)c1cc(Cl)ccc1NC(=O)c1ccco1 | inconclusive [inhibitor, single point]

Row | Compound | Potency
47 | Cc1ccc(C(C)C)c(OCC(=O)Nc2sc3c(c2C#N)CC(C)(C)NC3(C)C)c1 | inconclusive [inhibitor, partial curve]
48 | COCCN(C(=O)COC(=O)CCOc1ccccc1)c1c(N)n(Cc2ccccc2)c(=O)[nH]c1=O | inactive
49 | CC(=O)Nc1cccc(NC(=O)CSc2nccn2Cc2ccccc2)c1 | inactive
50 | COc1ccc(CNCc2c(C(=O)N(C)C)nc3ccc(Cl)cn23)c(OC)c1 | inconclusive [inhibitor, partial curve, poor fit]
51 | CCOC(=O)N1CCN(C(=O)CNC(=O)c2ccc(Cl)cc2Cl)CC1 | inconclusive [inhibitor, single point]
52 | N#Cc1ccccc1NC(=O)COC(=O)c1c[nH]c2ccccc12 | inconclusive [inhibitor, partial curve, poor fit]
53 | CCOC(=O)c1nn(-c2ccccc2)cc1O | inactive
54 | COc1ccc(OC)c(S(=O)(=O)Nc2cc3c4c(c2)C(C)C(=O)N4CCC3)c1 (centres undefined) | inconclusive [inhibitor, single point]
55 | Nc1ccc2c(c1)N1CCN=C1S2 | inactive
56 | CCS(=O)(=O)c1ccc(-c2csc(-c3ccccc3Cl)n2)c(Cl)c1Cl | inconclusive [inhibitor, single point]
57 | N/C(CC(=O)Nc1cc(C(F)(F)F)ccc1Cl)=N\O | inconclusive [inhibitor, partial curve]
58 | COCCNC(=O)CSc1nnc(-c2ccc(C)cc2)c(-c2ccc(C)cc2)n1 | inconclusive [inhibitor, full curve]
59 | O=c1c(NCCc2ccccc2)c(-c2ccccc2)c1=O | active: 2.08 µM
60 | CN1CCN(CCCNC(=O)c2ccc(/C=C3\Sc4ccccc4N(Cc4ccccc4F)C3=O)cc2)CC1 | inconclusive [inhibitor, single point]
61 | Cc1cc(Cl)ccc1OCCCC(=O)NN | inconclusive [inhibitor, single point]
62 | CC(C)C(=O)N1CCC(n2nccc2NC(=O)CCOc2ccccc2)CC1 | inactive
63 | COc1ccc(CNC(=O)c2coc(=O)c3ccccc23)c(OC)c1 | inconclusive [inhibitor, single point]
64 | CCOC(=O)c1nnn(-c2nonc2-n2cccc2)c1CN1CCOCC1 | active: 7.38 µM
65 | O=C(CSc1nnc(-c2ccc(Cl)cc2)n1Cc1ccco1)NCc1ccc2c(c1)OCO2 | inconclusive [inhibitor, single point]
66 | O=[N+]([O-])c1cccc(-c2noc3c2-c2nc(Cc4cccc5ccccc45)sc2CC3)c1 | inconclusive [inhibitor, single point]
67 | OCC1OC(n2cnc3c(=S)nc[nH]c32)C(O)C1O (centres undefined) | inconclusive [inhibitor, partial curve, poor fit]
68 | CCNC(=S)N/N=C(\C)c1cccc(C(F)(F)F)c1 | inactive
69 | COc1ccc(Cn2c(=O)[nH]c3cc(C(=O)NCCCN4CCCCCC4)ccc3c2=O)cc1 | inconclusive [inhibitor, single point]
